From patent US20210369661A1, “METHODS AND COMPOSITIONS FOR TREATING AND RECOVERING FROM VIRAL INFECTIONS” (IMMUNOFLEX THERAPEUTICS INC., priority 2020, published 2021)

Test system: CDR-3 of T- and B-cell surface receptors (immune repertoire)
Assay: Phase IV open label trial: immune repertoire changes by CDR-3 sequencing, healthy adults 60-70 years
Details: for Diversity Index vs. visit number, Visit 4: Visit 4 = after 2 weeks of daily dosing
[1] = diversity index plot (example participant)

SMILES	Diversity Index vs. visit number, Visit 4 [1]	Post-Treatment (1 week after dosing stopped (day 29), trial results summary)	Participants showing Diversity Index increasing in sync with the supplement protocol (NAC 600 mg twice daily, 14 days)	Diversity index (DI), Post-Treatment Effect (mean percent difference, time periods 0 d to 29 d, 7 d to 29 d, 21 d to 29 d)	Diversity Index vs. visit number, Visit 5 (diversity index plot (example participant), Visit 5 = 1 week after dosing was stopped)	Alice clusters (ALICE significant clusters), Effect During Treatment (mean percent difference, 0 d to 21 d and 7 d to 21 d)	Alice clusters (ALICE significant clusters), Post-Treatment Effect (mean percent difference, 0 d to 29 d, 7 d to 29 d, 21 d to 29 d)	During Treatment, Trend (oral daily dosing 14 days (day 7 to day 21), trial results summary)
COc1cc(/C=C/C(=O)CC(=O)/C=C/c2ccc(O)c(OC)c2)ccc1O [CUR, Curcumin]	greatest change	–	–	–	–	–	–	–
CC(=O)N[C@@H](CS)C(=O)O [NAC, N-acetylcysteine]	greatest change	No effect	4 out of 4	goes down	–	–	–	–
CCCCCCCCCCCCCCCC(=O)NCCO [PEA, Palmitoylethanolamide]	–	–	–	–	huge increase	decreases	dramatic increase	no effect
